Out of some 46,000 compounds screened, about 60 (0.1%) were called active. Roughly 3% stayed inconclusive and do not appear here. Calls come from the whole dose curve; as a rule, active = well fitted inhibition curve with a large enough effect; inconclusive = small, poorly fitted or top-dose-only effect; inactive = no such curve, though single readings can be large or run the other way. The list shows a part of the results.
Test: Primary qHTS assay for Inhibitors of ovarian cancer metastasis using an organotypic tumor microenvironment (TME) model.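 For activity change, negative = inhibition: plate controls were DMSO wells for no effect and tomatine positive control wells for full effect.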 Note: nearly all actives have a fitted effect of over 65% in size.
Conditions: SKOV3ip1-GFP adhesion/invasion on 3D omental model, fluorescence; series mostly up to 45.8 µM; activity change, negative = inhibition: at the top concentration
Method in brief: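 Primary human omental fibroblast/mesothelial 3D culture pre-formed 48 h. SKOV3ip1-GFP cells added with compounds (0.36-46 umol/L), incubated 2 h RT/16 h 37 C, fixed; GFP cells quantified at 488/509 nm.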

Activity change, negative = inhibition, inactive:
CCCCOc1cccc(C(=O)Nc2cc(NC(=O)c3ccco3)ccc2OC)c1 -3.18%
CCc1ccc(CN2CCc3nc(N4CCN(c5ccccc5F)CC4)ncc3C2)cc1 4.95%
Cc1ccc(Cl)cc1N1CCN(C(=O)c2c(C)oc3ncnc(N4CCCCC4)c23)CC1 0.637%
Cc1oc2ccc(O)c(CN3CCCC3)c2c1C(=O)Nc1ccc(C(C)C)cc1 -1.25%
Cc1c(Cl)cccc1NC(=O)C1CCCN(c2ncnc3onc(C)c23)C1 (centres undefined) -1.22%
CCOC(=O)N1CCC(NC(=O)c2cnn(-c3cccc(F)c3)c2-n2cccc2)CC1 -7.18%
Cc1ccc(-c2nnc(Nc3cccc(O)c3)c3ccccc23)cc1S(=O)(=O)NCC1CCCO1 (centres undefined) -7.97%
Cc1ccc(Cl)cc1N1CCN(C(=O)c2ccc3c(c2)CCN3S(=O)(=O)c2ccccc2)CC1 0.245%
COc1ccc(CCC(=O)NCc2nc3cccnc3n2Cc2ccc(F)cc2)cc1 1.72%
CC1CCN(S(=O)(=O)c2ccc3c(c2)c(=O)c(C(=O)NC(C)c2ccccc2)cn3C)CC1 (centres undefined) -2.67%
NS(=O)(=O)c1ccc(CCNc2ncnc3c2cnn3-c2cccc(Cl)c2)cc1 -4.47%
O=C(NCCc1ccccc1)C1CCN(Cc2cc3ccccc3n2Cc2cccc(Cl)c2)CC1 0.297%
O=C(NCCc1ccccc1)c1ccc2c(c1)N(Cc1ccccc1)C(=O)c1ccccc1S2(=O)=O 2.29%
COc1cccc(Nc2sc(C(=O)c3ccc(Cl)cc3)c(N)c2C(=O)NCc2ccc(C)cc2)c1 -2.81%
COc1ccc(Cl)cc1NC(=O)c1ccc2c(c1)CCN2S(C)(=O)=O 5.74%
CCOc1cc(C(=O)Nc2cccc3cccnc23)cc(OCC)c1OCC -1.3%
Cc1cc(NC(=O)CSc2nc(-c3ccccc3C)nc3c2c(=O)n(C)c(=O)n3C)no1 5.53%
CCOC(=O)CN(Cc1ccccc1)C(C(=O)NC1CCCCC1)c1ccc(OC)cc1 (centres undefined) -8.26%
Cc1ccc(Nc2nc3ccccc3c3nnc(C)n23)c(C)c1 9.05%
CCCCN(CCCC)CCNC(=O)CN1C(=O)CSc2ccc(S(=O)(=O)N3CCOCC3)cc21 5.29%
O=C(Nc1cccc(C(F)(F)F)c1)N1CC2CCCN2c2ccccc21 (centres undefined) -15.3%
COc1ccc(-n2nc(C(=O)Nc3ccc(Cl)cn3)c3c4ccccc4n(C)c3c2=O)cc1 0.866%
CCCOc1ccc(CNC(=O)c2ccc(C)c(-n3c(C)nc4cccnc43)c2)cc1 0.292%
Cc1oc2ncn(C)c(=O)c2c1C(=O)NCCCN1CCCCC1C (centres undefined) 1.27%
CC(=O)c1cccc(NC(=O)Nc2nnc(N3CCCC3)s2)c1 11.8%
COc1cccc(CNC(=O)c2ccc3c(=O)n4nc(Nc5ccccc5)sc4nc3c2)c1 1.18%
CCOC(=O)c1c(C)n(-c2ccccc2)c2ccc(OC(=O)c3cccc(C)c3)cc12 0.52%
CCN1CCN(C(c2ccc(C)cc2)c2c(O)cc(C)n(Cc3ccco3)c2=O)CC1 (centres undefined) 2.96%
CN(Cc1ccccc1)S(=O)(=O)c1ccc2[nH]c3c(c2c1)CCCCC3 -1.73%
Cc1ccc(N2CCN(C(=O)c3cnn(-c4ccc(F)cc4F)c3C3CCN(C(=O)OC(C)(C)C)CC3)CC2)c(C)c1 7.3%
COc1ccc(-n2nc(C(=O)O)c(=O)n(C)c2=O)cc1 0.925%
O=C(O)CCC=CCC[C@@H]1[C@H](N2CCCCC2)[C@@H](O)C[C@@H]1OCc1ccc(-c2ccccc2)cc1 -3.37%
COc1cc(OC)c(N(C)C(=O)c2cn(C3CCCC3)c(=O)c3c2c2ccccc2n3C)cc1Cl 18.1%
CCN1C(=O)C(Cc2nc3ccccc3c(=O)n2C)c2cc(C)ccc21 (centres undefined) 0.164%
CCc1ccc(S(=O)(=O)c2nnn3c2nc(NCc2ccccc2)c2cc(Cl)ccc23)cc1 4.12%
COc1ccccc1-c1nc2cc(NC(=O)c3ccccc3Cl)ccc2o1 -7.73%
COc1cc(NS(=O)(=O)c2ccc(-c3cc(C)no3)cc2)cc(OC)c1 -9.5%
Cc1ccc(-c2csc3ncnc(Nc4ccc(C(=O)O)cc4)c23)cc1 -9.92%
Cc1nc(S(=O)(=O)N2CCN(c3ccccc3F)CC2)cn1C 11.1%
COc1ccc(OC)c(/C=C(\C#N)c2nc(-c3ccc(F)cc3)cs2)c1 -9.42%
COc1ccc(Cn2c(C(=O)O)c(CNC3CCCCC3)c3ccc(C)cc32)cc1 2.76%
COC(=O)c1ccc2c(c1)N(Cc1ccccc1)C(=O)c1ccccc1S2(=O)=O 6.92%
COc1ccccc1NC(=O)c1sc2nc3n(c(=O)c2c1C)N=C(c1cccc(Br)c1)CS3 -1.95%
COc1ccc2c(c1)CCc1c(C(=O)Nc3ccc(OC)cc3OC)noc1-2 5.59%
Cc1cccc(CNC(=O)CN2C(=O)CCn3nc(-c4cn(C)c5ccccc45)cc32)c1 -3.81%
CCCC12CN3CC(C)(CN(C1)C3c1ccc(OCc3ccccc3)cc1)C2=O (centres undefined) -0.731%
Cc1ccc(SCc2nc(-c3ccc(C(=O)NCC(C)c4ccccc4)cc3)oc2C)cc1 (centres undefined) 6.06%
CCOc1ccc(NC(=O)Cc2c[nH]c3ccccc23)cc1 4.23%
O=C(O)c1ccc(NC(=O)c2ccc(Br)c(S(=O)(=O)N3CCCC3)c2)cc1 -6.59%
Nc1c(-c2nc(-c3ccc4c(c3)OCO4)cs2)c2ccccn2c1C(=O)c1ccc(Cl)cc1 0.214%
COc1cc(C(CC(=O)Nc2ncccc2C)N2Cc3ccccc3C2=O)cc(OC)c1OC (centres undefined) -7.29%
CCOC(=O)c1cnc2ccc(OCC)cc2c1Nc1ccc(OCc2ccccc2Cl)cc1 -14.2%
CCN(c1ccccc1)S(=O)(=O)c1ccc(NC(=O)c2nc(SC(C)C)ncc2Cl)cc1 0.546%
Cc1ccc(C(=O)N2CCC(C)CC2)cc1NC(=O)c1nsc2ccccc12 2.66%
O=C(OCc1cc(=O)n2nc(C3CC3)sc2n1)c1ccc(NC(=O)c2ccccc2F)cc1 -6.67%
CCOc1ccc(Br)cc1C1NC(=O)c2c(sc3c2CCN(C)C3)N1 (centres undefined) 8.7%
CC1(C)CC(=O)c2c(C(F)(F)F)nn(-c3ccc(C(N)=O)c(NC4CCC(O)CC4)c3)c2C1 (centres undefined) -5.46%
CC(=O)c1cc(-c2ccc(F)cc2)n(CCC(=O)Nc2nc3ccc(C)cc3s2)c1C 1.81%
CCc1ccccc1NC(=O)c1ccc(F)c(S(=O)(=O)N2CCN(c3cccc(Cl)c3)CC2)c1 6.91%
CC1CCCCN1CCCNC(=O)Cn1ncc2c3ccccc3n(C)c2c1=O (centres undefined) 7.6%
Cc1ccc(S(=O)(=O)c2cc3cc(C(=O)Nc4ccc(C)cc4C)ccc3oc2=O)cc1 -8.74%
COc1ccc(CCNc2ncnc3onc(C)c23)c(OC)c1 3.81%
CC1CCN(S(=O)(=O)c2ccc3nc(N4CCN(c5ccc(F)cc5)CC4)ccc3c2)CC1 -0.148%
C[C@]12CC[C@H](O)CC1=CC[C@@H]1[C@H]2CC[C@]2(C)C(c3cccnc3)=CC[C@H]12 -14.4% [at 23.2 µM]
CC(C)OCCCNC(=O)CCCN1C(=O)CCn2nc(-c3cccn3C)cc21 -0.282%
O=C(COCc1cc(-c2cccs2)on1)Nc1cc(C(F)(F)F)ccc1Cl 1.62%
CCOc1ccc(NC(=O)CSc2oc(-c3ccc(C)cc3)nc2S(=O)(=O)c2ccc(C)cc2)cc1 -0.872%
COc1cccc(C(=O)N(Cc2ccc(C)o2)C2CCS(=O)(=O)C2)c1 (centres undefined) 4.34%
Nc1ccn([C@@H]2O[C@H](CO)[C@@H](O)[C@H]2O)c(=O)n1 -3.37%
Cc1cc(C)c(NC(=O)CSc2nc3c([nH]c4ccccc43)c(=O)n2C)c(C)c1 43.3%
CCCOc1cccc(C2c3c(oc4ccc(F)cc4c3=O)C(=O)N2c2nc(C)c(C(C)=O)s2)c1 (centres undefined) 1.1%

outcome, inactive:
CCc1cc(C(=O)Nc2sc(C)c(CC)c2C#N)no1
C#CCOc1ccc(-c2nnc(Nc3ccc(NC(C)=O)cc3)c3ccccc23)cc1
CN(CC(=O)Nc1ccccc1F)S(=O)(=O)c1ccc2c(c1)c(=O)n(C)c(=O)n2C
O=C(NCc1ccccc1Cl)c1ccc2c(c1)N(Cc1ccccc1)C(=O)CS2
COc1ccc(CNC(=O)c2cc(=O)[nH]c3ccc(S(=O)(=O)N4CCCC4)cc23)c(OC)c1
CC(=O)c1cccc(NC(=O)C(CC(C)C)NS(=O)(=O)c2ccc3c(c2)CCN3C(C)=O)c1 (centres undefined)
COc1ccc(-c2cc3nc(C)c(CCC(=O)N4CCN(c5ccc(F)cc5)CC4)c(C)n3n2)c(OC)c1
CC(=O)c1cccc(Nc2cc(C)nc3nc(Cc4ccccc4)nn23)c1
COc1ccccc1OCC(=O)NC1CC(=O)N(c2ccc3c(c2)OCCO3)C1 (centres undefined)
COc1ccc2cc(-c3nnc(Nc4ccccc4)s3)c(=O)oc2c1
Cc1cccc(NC(=O)Cn2nc3c4ccccc4n(Cc4ccccc4)cc-3c2=O)c1
CC(=O)c1cc(-c2ccc(F)cc2)n(CC(=O)NC2CCC(C)CC2)c1C (centres undefined)
Cc1ccccc1C(=O)OCc1cc(=O)n2nc(C(C)C)sc2n1
O=C(Nc1ccc(Cl)cc1)c1cc(S(=O)(=O)NC2CCCCCC2)ccc1F
O=C(CN1CCN(Cc2ccccc2Cl)C1=O)NCCc1ccc(Cl)cc1
CCOc1ccc(C(=O)Nc2ccc3c(c2)OCCO3)cc1Br
CCCNC(=O)C(Cc1ccccc1)NS(=O)(=O)c1ccc2c(c1)c(=O)n(C)c(=O)n2C (centres undefined)
COc1ccc(Cl)cc1NC(=O)CN1Cc2ccccc2C1=O
Cc1cccc(CNC(=O)CN2C(=O)CSc3c2c(C)nn3-c2ccccc2)c1
COc1ccc(-c2nc3cc(NC(=O)c4ccc(C)cc4)ccc3o2)cc1Cl
COCCCn1c(=N)c(C(=O)NC2CCCCC2)cc2c(=O)n3cc(C)ccc3nc21
COc1ccc(-c2cc(C(F)(F)F)nc(NCc3ccc(F)cc3)n2)cc1
COc1ccc(CCNC(=O)c2ccc(Cn3c(=O)[nH]c4cc(OC)c(OC)cc4c3=O)cc2)cc1OC

Source: PubChem BioAssay AID1963576 (National Center for Advancing Translational Sciences (NCATS), 2024)
